Results on 14 sequences are retold here after the supplement of paper PMC7826260.

The list shows a part of the results. One pool of 16,384 single-stranded DNAs met each Rep nickase domain in vitro for 1 h at 37 °C with 3 µM enzyme; only the middle of the 90-letter strands is printed. Numbers give uncut DNA relative to the enzyme-free pool, as log2; the lower, the more was cut; hits are not called. Because reads are shares of a total, they shift together, so uncut sequences can rise above 0 when many others are cut.

What all share (test): uncleaved DNA left, log2 of reads against the no-enzyme library (log2 ratio); higher = less cleavage (more negative = more Rep cleavage of the k-mer); sequences stand for … in CTCGTCCG…ACCGGAGA
Test [1] deals with T1, Rep nickase domain of Muscovy duck circovirus.
T1 sequence (residues 1-111, tag not shown): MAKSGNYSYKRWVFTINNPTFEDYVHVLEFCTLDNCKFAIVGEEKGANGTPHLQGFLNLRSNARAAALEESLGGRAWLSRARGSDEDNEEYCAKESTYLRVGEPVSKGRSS
The procedure:
(§1)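 A pool of 90-nt single-stranded DNAs with seven random bases just before the constant AC of the nick site (name = the seven bases) was cut by 3 µM recombinant His6-SUMO-tagged Rep nickase domain (300 nM DNA, 50 mM HEPES pH 8.0, 50 mM NaCl, 1 mM MnCl2, 1 h, 37 °C, three replicates). Uncut DNA was amplified and sequenced.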

For test [2], the system named is T2, Rep nickase domain of banana bunchy top virus.
T2 sequence (residues 1-94, tag not shown): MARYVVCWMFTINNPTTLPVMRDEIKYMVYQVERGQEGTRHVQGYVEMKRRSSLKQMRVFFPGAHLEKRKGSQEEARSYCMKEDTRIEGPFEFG
How it is done:
as §1

Test [3] deals with T3, Rep nickase domain of cabbage leaf curl virus.
T3 sequence (residues 1-116, tag not shown): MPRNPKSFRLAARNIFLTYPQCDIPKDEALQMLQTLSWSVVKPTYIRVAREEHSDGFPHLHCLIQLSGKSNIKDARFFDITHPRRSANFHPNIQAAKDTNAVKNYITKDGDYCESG
How it is done: as §1
Test [4] has as its system T4, Rep nickase domain of chickpea chlorotic dwarf virus.
T4 sequence (residues 1-124, tag not shown): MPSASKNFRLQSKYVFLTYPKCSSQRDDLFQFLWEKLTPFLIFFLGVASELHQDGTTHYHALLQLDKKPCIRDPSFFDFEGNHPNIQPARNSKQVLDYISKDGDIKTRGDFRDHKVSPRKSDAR
The procedure:
as §1

Test [5] relates to T5, Rep nickase domain of faba bean necrotic yellows virus.
T5 sequence (residues 1-98, tag not shown): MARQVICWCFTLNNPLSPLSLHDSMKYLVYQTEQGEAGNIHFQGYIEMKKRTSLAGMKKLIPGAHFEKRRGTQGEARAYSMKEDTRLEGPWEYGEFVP
The procedure:
as §1

Test [6] has as its system T6, Rep nickase domain of maize striate mosaic virus.
T6 sequence (residues 1-117, tag not shown): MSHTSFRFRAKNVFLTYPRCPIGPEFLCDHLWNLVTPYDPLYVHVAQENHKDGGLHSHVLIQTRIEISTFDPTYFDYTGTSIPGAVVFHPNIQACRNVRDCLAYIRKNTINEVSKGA
The procedure: as §1
The subject of test [7] is T7, Rep nickase domain of porcine circovirus 2.
T7 sequence (residues 2-116, tag not shown): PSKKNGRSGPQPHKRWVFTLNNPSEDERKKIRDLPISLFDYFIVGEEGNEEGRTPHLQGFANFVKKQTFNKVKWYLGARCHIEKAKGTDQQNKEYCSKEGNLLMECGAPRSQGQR
How it is done: as §1
The test system of test [8] is T8, Rep nickase domain of tomato yellow leaf curl virus.
T8 sequence (residues 1-136, tag not shown): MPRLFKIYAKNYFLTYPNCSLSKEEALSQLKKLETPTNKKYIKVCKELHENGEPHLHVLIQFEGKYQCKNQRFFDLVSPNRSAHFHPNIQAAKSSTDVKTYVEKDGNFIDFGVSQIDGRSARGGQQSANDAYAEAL
The procedure:
as §1

The subject of test [9] is T9, Rep nickase domain of wheat dwarf virus.
T9 sequence (residues 1-137, tag not shown): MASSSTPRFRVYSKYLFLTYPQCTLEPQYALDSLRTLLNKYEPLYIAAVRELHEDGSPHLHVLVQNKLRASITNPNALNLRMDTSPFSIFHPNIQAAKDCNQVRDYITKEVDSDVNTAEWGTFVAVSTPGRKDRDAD
How it is done:
as §1

In the case of TATAATG, the “uncleaved DNA left (log2)” value in test [1] is 0.0254; in test [2], -0.0752; in test [3], -0.524; in [4] it was -0.837; in test [5] it was 0.125; in test [6] it was -1.02. Further, the entries for the “uncleaved DNA left (log2)” value in test [7], in test [8] and in [9] were 0.153, -0.0466 and -0.00535, respectively.
As to TCATATC, the “uncleaved DNA left (log2)” value in test [1] is 0.0294; in [2] it was 0.131; in [3] it was 0.0431; in test [4] it was -0.309; in test [5], 0.0705; in [6], -0.629. Moreover, the “uncleaved DNA left (log2)” value amounted to 0.0613 in test [7], 0.14 in test [8] and 0.143 in test [9].
Consider GGTTCCT, for which the “uncleaved DNA left (log2)” value in [1] was -0.0221; in test [2] it was 0.128; in [3], 0.441; in test [4], 0.747; in test [5] it was 0.271; in test [6], 1.82. Moreover, the “uncleaved DNA left (log2)” value is -0.276 in test [7], 0.197 in [8] and 0.188 in [9].
As for CCTAAAC, the “uncleaved DNA left (log2)” value is 0.0494 in [1]; 0.0618 in test [2]; 0.0978 in test [3]; -0.483 in test [4]; -0.0124 in [5]; -0.613 in test [6]. Besides, the “uncleaved DNA left (log2)” value in [7] was 0.143; in test [8], 0.0274; in test [9], -0.0419.
As to CCCTATC, the “uncleaved DNA left (log2)” value is 0.0101 in test [1]; 0.00409 in test [2]; 0.293 in test [3]; 0.188 in [4]; 0.212 in [5]; -0.462 in [6]. Further, the “uncleaved DNA left (log2)” value was -0.0776 in [7], 0.226 in test [8] and 0.12 in test [9].
For the sequence GAATGAA, the “uncleaved DNA left (log2)” value in test [1] is 0.0262; in [2] it was -0.0224; in test [3], 0.184; in test [4] it was 0.312; in [5] it was 0.024; in test [6], 0.49. Further, the “uncleaved DNA left (log2)” value in test [7] is -0.507; in test [8], -0.0291; in test [9], 0.0817.
Turning to TCTAGGC, the “uncleaved DNA left (log2)” value is 0.142 in [1]; -0.0299 in [2]; 0.415 in test [3]; 0.809 in test [4]; 0.0366 in test [5]; 0.518 in [6]. The “uncleaved DNA left (log2)” value stood at 0.123 in test [7], 0.0594 in test [8] and 0.128 in [9].
For the sequence CTCTATC, the “uncleaved DNA left (log2)” value in test [1] is -0.104; in [2], -0.056; in [3] it was -0.0204; in test [4] it was -0.246; in [5], -0.338; in test [6], -0.878. Also, the “uncleaved DNA left (log2)” value in [7] was -0.136; in test [8] it was -0.0585; in [9] it was -0.0838.
As to CGAGGAT, the “uncleaved DNA left (log2)” value in [1] was 0.0518; in test [2] it was -0.0194; in test [3], 0.15; in [4] it was 1.66; in [5], -0.0983; in test [6], 1.88. Besides, the “uncleaved DNA left (log2)” value in [7] is 0.282; in [8] it was -0.134; in [9], 0.0638.
In the case of CTGGCTA, the “uncleaved DNA left (log2)” value in test [1] is 0.0078; in test [2], -0.0964; in test [3], -0.226; in test [4], -0.373; in [5], -0.0518; in test [6], -0.347. Moreover, the figures for the “uncleaved DNA left (log2)” value in test [7], in [8] and in [9] were -0.119, -0.102 and -0.0921, respectively.
For the sequence GGACTTG, the “uncleaved DNA left (log2)” value in test [1] was -0.0919; in test [2], 0.0121; in test [3], 0.533; in test [4] it was 1.41; in [5] it was 0.0918; in test [6], 1.88. Moreover, the figures for the “uncleaved DNA left (log2)” value in [7], in [8] and in test [9] were 0.183, -0.0344 and 0.119, respectively.
Consider GAAGCAC, for which the “uncleaved DNA left (log2)” value came to 0.0287 in test [1]; 0.0238 in [2]; 0.122 in [3]; 0.545 in test [4]; 0.152 in test [5]; 0.275 in test [6]. Besides, the “uncleaved DNA left (log2)” value was determined as 0.119 in test [7], 0.0977 in test [8] and 0.103 in [9].
In the case of GAAGTCG, the “uncleaved DNA left (log2)” value in test [1] is 0.136; in [2], 0.135; in test [3] it was -0.715; in test [4], 0.0505; in test [5], 0.0381; in test [6], -0.822. Besides, the “uncleaved DNA left (log2)” value in [7] is 0.0337; in test [8], 0.0186; in [9], 0.0728.
Regarding CCTTATG, the “uncleaved DNA left (log2)” value in test [1] was 0.0581; in test [2], -0.101; in [3], -0.592; in test [4], -0.485; in test [5], 0.0559; in test [6] it was -1.19. In addition, the “uncleaved DNA left (log2)” value in test [7] was 0.159; in test [8] it was -0.0894; in test [9], -0.0619.
